Reference: the RNAGym collection of RNA variant scans (doi:10.7554/elife.90254)
The source gives no read counts; variants with many changes may rest on few reads.

B1: OR4K15 (parent)
chain: GUUAACGGUCAUAGGCCAUGGAAACUAGGAGCACCAUUUCGCUGCCAGUGAAGAAAUGAACAAAGAAAAUCUGGGCCAGGCAGGCAUCAAAAGAAAUAGUCUUGCGCUCAACCAGAAAGUCUGUAAUCAUUUUAAGGGUA

Variants of: B1
Experiment: self-cleavage, relative activity (ratio to wild type); higher = more cleavage; in vitro, sequencing; the parent is a self-cleaving ribozyme

Variant	self-cleavage
A4G A66G A125G	0.21
A5G A23G U49C	1.17
A5G A18U A33G A55C	0.9
U3C U39A A51G A86G U139C	0.3
A4G A59G A92G A94U U120C	0.41
A5C C17U A134G	1.29
A5G A27G A95G A110G	0.19
A4G A59U C101U U108C	0.09
A4U A51G A60G	2.64
A4G A64G U72A A118G	0.14
A5G A22U U39C	1.39
A5G A13U A36G A110G U124C	0.09
A5G A18U A60G	0.82
U3C A95G A134G	1.75
A5G A18G A36U A92G	0.26
U3C A23U A30G A52G A54U	1.61
A4G A33G U97C U122A	0.71
A5G A18U A24U U49C G137A	1.12
U3A U43C U49C C121U	1.11
A5G A11G A67G	0.3
A4G A33G G84C	0.37
A5G A23G A33G U72A A126G	0.19
U3C A22G A69G U87C A98U U131C	1.13
U3C A33U A47G A94G	1.17

Variant	self-cleavage
U2G U12A A24G	0.84
A5C A82G G137A	0.43
A4G C88U U130C	1.58
A4G U49C A89U	0.77
U3A A55G A64G A68G	1.34
A4G A59U A96G A116G U127C	0.56
U3C A5U U131C	0.85
A4G U12C A13G U70C A110G	0.04
A4G A66U U87A	1.4
A4G G21U U120G	1.67
A4G U9C U12C A51G A68G U108C	0.2
A5G A27U U39C A59U U72C	0.25
A4G A51G A60C	1.4
A4G A30G G53U G106C	0
U3C U19A A62C G136U	1.3
U2C U43A A135G	1.27
U3C A23U A54G A89G C113U	0.05
A4G A96G A117G	1.1
U3G U26C U127C	0.6
A5C U49A A94U A129U	0.83
U2C U100C A129G	1.17
U3C A13U U130G	1.24
U2G A30U A33G A91G U108C U127C	0
A5G A22G U37C	0.96

Variant	self-cleavage
A5C U37C A114U	0.25
U2C U72C A86C	0.22
U2C U39C A68G	0.53
U2C U39C U43A	0.74
A4G U39C G65A	1.91
U3C A33U A67U A78G A126U	0.24
A4G A5G A54G	0.78
U3C A78U A95G	0.87
U2C U72C A82U U120C	0.03
A5G A11G U38C	0.98
U3C A60G U120C	0.64
U3C U103C A116U U130C	0.15
A5G A27G A30U A68G G106U A110U	0
U2C U87C U120A	0.28
A5G A23C A24G	0.78
U2C U97C U108C	0.02
A4G U19C U43A A86G	1.02
U3C A36G A51G	1.02
A5C A47G A67G G93U	1.12
A4U A51G A54G A118G	0.91
U3G U49C A126G	0.82
U3C G104A A117G G138A	0.03
U3C A56G A96G A114G	0.71
U3A A82G U103C A110G	0.14

Variant	self-cleavage
A5G A11G A30G A64G	1.06
U3C A51G A56G U102C A125G U132C	1.11
A5G A24G A60G U127C	0.55
U3C G73A U100C	0.18
A5G A22G A47G U72C A134G	0.1
A4U A23G A47G A52G U127A	0.67
A4U U9C U130C	1.07
A4G A33C A126G	0.98
A4G A13G A24G U70C A111G A125C	0.15
A4G A5G A59G U120C	0.52
U3C A55G A91U	1.2
A4G A56G A59G U103C A126C	0.29
U3C A62U A114U	0.13
A4U A18C U26A A114U	0.1
A4G A59U A126G	0.79
A4G A114G A118G A134G	0.79
U3C U9C A13G A56G U70C	0.65
U3C A13G A18G A64G C77U	1.04
A5G A18U A51G A96G	2.31
A5G A11C A33G A47G A69U	0.91
A4G A52G A89U A95G	1.99
A4G A5G A24G A62G U70C A111G	0.01
U3C A62C C113A	0.06
U3C U43A A64G G80A A90U	0.27

Variant	self-cleavage
A4G A30G U38C	1.34
A4G U19C C25U A111G	0.15
A4G C42U G58U A62G	1.04
U2C U103C U131C	1.17
U3C A51G C81A U87A U132G	0.09
U3C A24G A63G	0.87
U2C U39A U87C	0.8
U3C U37G U38A A60G G65A	0.57
A5C A55G A68G A86C	0.77
U2C U49C A60U	1.39
U3C U12C A63G A64G C81A	0.36
U3C U19C U43C U49C A55G A90G	0.7
A4G U9A A33G U39A A55G A89G	1.18
A4G A22U U72C A92G	0.31
A5C C34U U37C U57C A63U	0.57
A4G U38C A67G A68C U102C	0.27
U3C U26C A78G	0.32
U3C U72C A78G A92G	0.15
A5C A54G A94U U132C	1.04
A5G A27G A134G A135U	1.34
A5G A22U A89U G137A	0.78
U2C U122C U130C A135G	1.76
U3C A63G G80C U108A	0.03
A4G U9C A47G A59G A94G A117G	0.47

Variant	self-cleavage
U3A U43C A63G	0.89
A4G U132C G138A	0.95
U3A G48A A98G	0.52
A4U A78G U103C	0.23
A4G G83A U108G	0.02
A4G A23G A59G A82G	0.73
U3C A51G A95C U120C G138U	0.7
U3C A36U U43C A55G A64U C76U	0.1
A4G U49C A95G	1.48
A5G A11G A56G A126G	0.95
U2C U39A U49C A78U A116G G136U	0.24
U3C A33U U122C	1.24
U3C A24U A60G A62U U87C	0.73
A5G A24G U57C	0.55
U3A A62G G74U	0.14
A5C A24G A33U A51G A126G U127C	0.5
A5G A13G U87A	0.76
U3C A33U A110G	0.22
U2C U100C A117G A140G	2.93
A5G A23G A52U	1.03
A4G A56G A59G A69G A134G	0.69
U3C A22G A98G U103C	0.11
U3A G58A A67G	0.8
A4U U38C U133C	1.5

Variant	self-cleavage
A5G A13U U57G U122C	1.07
A4G A33G U70C A114G A116G	0.48
A5C A18G A22G A92G U120A A126G	0.8
U3C U87C U120C	0.5
A5G A18U A55G U127C	1.41
U3A A116C U132A	0.02
A5G A11G A95G U103C A114G	0.16
U2C U70C A89G A98C C128U G137U	0.38
U2C U49A A91C A94G A135G	1.23
U3C A4G U127A	0.73
U3C U38C U49C U70C G84U A114G	0.07
A5G A24G A33G A52G A82G A86G	0.36
U3C A13G A22G U87C	1.07
A4G A23G U100C A126U	0.82
A4G U19A U49A A82G A118G	0.88
U2G U122A U133A	1.4
U3A A18U A23G A129C	0.49
A4G A24C A56G A110G	0.12
U2C U43C A60U A126U U130C U131C	0.63
A4G A52G A56G U87C	0.58
U3C A56G G83A A90G A114U	0.09
A4G A60G U87C	1.42
A4C A54G U57C A67G G84A A94G	0.72
